Data: PubChem BioAssay AID1851 (National Center for Advancing Translational Sciences (NCATS), 2009)
The hits were mostly taken out for another list; the other results follow. Results filed as inconclusive are left out. Active and inactive are the calls of the source. Calls follow the shape of the dose curve; as a rule, active = well fitted curve in the direction sought with a large enough effect; inconclusive = small, poorly fitted or top-dose-only effect, or effect the other way; inactive = no such curve, though single readings can be large or run the other way.

Molecular target: Cytochrome P450 2D6 (Homo sapiens) (UniProt P10635)
Assay: Cytochrome panel assay with activity outcomes
Conditions: recombinant CYP, pro-luciferin dealkylation, luminescence, p450-cyp2d6; series mostly up to 57.1 µM

Chain of UniProt P10635 (P10635 whole entry, looked up): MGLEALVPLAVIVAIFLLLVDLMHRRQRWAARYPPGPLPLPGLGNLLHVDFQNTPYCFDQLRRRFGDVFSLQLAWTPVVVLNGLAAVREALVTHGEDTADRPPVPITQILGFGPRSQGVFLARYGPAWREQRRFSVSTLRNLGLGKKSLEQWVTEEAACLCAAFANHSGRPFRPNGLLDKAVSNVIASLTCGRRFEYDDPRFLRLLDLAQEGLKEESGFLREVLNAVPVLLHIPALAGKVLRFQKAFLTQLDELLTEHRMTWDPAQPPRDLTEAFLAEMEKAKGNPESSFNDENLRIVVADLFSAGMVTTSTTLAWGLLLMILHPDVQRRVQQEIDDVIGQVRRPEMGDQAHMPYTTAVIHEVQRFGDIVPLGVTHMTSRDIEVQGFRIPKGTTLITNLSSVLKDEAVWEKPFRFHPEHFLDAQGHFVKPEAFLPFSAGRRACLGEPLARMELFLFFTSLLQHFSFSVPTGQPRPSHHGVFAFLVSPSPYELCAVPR

Compound	AC50
COc1ccc(C2=NN(C)C(=NCc3ccccc3)SC2)cc1	active: 5.62 µM
Nc1nc2ccc(OC(F)(F)F)cc2s1	inactive
CCN(C(=O)CSc1nnc(Cc2cccc3ccccc23)n1N)C1CCS(=O)(=O)C1 (configuration not stated)	inactive
Nc1ccc(Sc2ccccc2CC(=O)O)cc1	inactive
CCOc1cc(/C=N/n2cnnc2)ccc1OC(=O)c1cccc([N+](=O)[O-])c1	inactive
Cc1ccc(OCCNC(=O)/C=C/c2ccc([N+](=O)[O-])cc2)cc1C	inactive
C[C@@H]1C[C@H]2[C@@H]3C[C@H](F)C4=CC(=O)C=C[C@@]4(C)[C@]3(F)[C@H](O)C[C@]2(C)[C@@]1(O)C(=O)CO	inactive
